Experimental data taken from patent publication US7517874B2 (priority 2007, dated 2009).
pEC50: −log10 of the molar value. Read-outs that look alike come from different tables or passages of the source.

Molecular target: human CB2 receptor (hCB2) (Homo sapiens, UniProt P34972)
Assay: cell-based
Assay type: cell-based
Details: for EC50: groups >100 nM-10 μM and >10 μM, cAMP, CHO-K1 hCB2, read-out: EC50 HCB2; for +/− HCB2: agonist or inverse agonist at hCB2

Sequence of human CB2 receptor (hCB2) (P34972 whole entry): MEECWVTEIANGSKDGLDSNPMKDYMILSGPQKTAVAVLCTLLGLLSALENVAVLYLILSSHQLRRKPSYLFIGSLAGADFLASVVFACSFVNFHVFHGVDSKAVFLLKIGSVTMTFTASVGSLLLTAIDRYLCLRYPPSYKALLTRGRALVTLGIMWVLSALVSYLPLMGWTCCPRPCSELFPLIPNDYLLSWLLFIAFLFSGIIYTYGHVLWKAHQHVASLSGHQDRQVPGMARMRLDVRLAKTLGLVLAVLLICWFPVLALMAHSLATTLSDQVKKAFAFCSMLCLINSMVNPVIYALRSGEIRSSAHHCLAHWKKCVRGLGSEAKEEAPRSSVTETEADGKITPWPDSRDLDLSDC

SMILES	+/− HCB2	pEC50	also measured
CN1CCn2c(-c3ccc(Cl)cc3F)nc(C(=O)NC3CCN(S(C)(=O)=O)CC3)c2C1 [Compound 213, 3-(4-chloro-2-fluorophenyl)-7-methyl-N-(1-(methylsulfonyl)piperidin-4-yl)-5,6,7,8-tetrahydroimidazo[1,5-a]pyrazine-1-carboxamide]			EC50: > 10000 nM
CNC(=O)[C@@H](NC(=O)c1nc(-c2ccsc2)n2c1CNCC2)C(C)(C)C [Compound 11, (S)-N-(3,3-dimethyl-1-(methylamino)-1-oxobutan-2-yl)-3-(thiophen-3-yl)-5,6,7,8-tetrahydroimidazo[1,5-a]pyrazine-1-carboxamide]	+		
CNC(=O)[C@@H](NC(=O)c1nc(-c2cccc(F)c2F)n2c1CN(C)CCC2)C(C)(C)C [Compound 369, (S)-3-(2,3-difluorophenyl)-N-(3,3-dimethyl-1-(methylamino)-1-oxobutan-2-yl)-8-methyl-6,7,8,9-tetrahydro-5H-imidazo[1,5-a][1,4]diazepine-1-carboxamide]	+		
CNC(=O)[C@@H](NC(=O)c1nc(-c2ccccc2)n2c1CNCCC2)C(C)(C)O [Compound 606, (S)-N-(3-hydroxy-3-methyl-1-(methylamino)-1-oxobutan-2-yl)-3-phenyl-6,7,8,9-tetrahydro-5H-imidazo[1,5-a][1,4]diazepine-1-carboxamide]		< 5.00	
CNC(=O)[C@@H](NC(=O)c1nc(-c2cccc(-c3ccccc3)c2)n2c1CN(C)CCC2)C(C)(C)C [Compound 383, (S)-3-(biphenyl-3-yl)-N-(3,3-dimethyl-1-(methylamino)-1-oxobutan-2-yl)-8-methyl-6,7,8,9-tetrahydro-5H-imidazo[1,5-a][1,4]diazepine-1-carboxamide]		< 5.00	
C[C@@H](NC(=O)c1nc(-c2ccccc2)n2c1CN(C(=O)C1CC1)CC2)C1CCCCC1 [Compound 132, (R)-N-(1-cyclohexylethyl)-7-(cyclopropanecarbonyl)-3-phenyl-5,6,7,8-tetrahydroimidazo[1,5-a]pyrazine-1-carboxamide]		< 5.00	
CNC(=O)[C@@H](NC(=O)c1nc(-c2ccc(OC)cc2C)n2c1CN(C)CCC2)C(C)(C)C [Compound 343, (S)-N-(3,3-dimethyl-1-(methylamino)-1-oxobutan-2-yl)-3-(4-methoxy-2-methylphenyl)-8-methyl-6,7,8,9-tetrahydro-5H-imidazo[1,5-a][1,4]diazepine-1-carboxamide]		< 5.00	
CC(C)C[C@H](NC(=O)c1nc(-c2cc(Cl)c(F)cc2F)n2c1CN(C)CCC2)C(N)=O [Compound 571, (S)-N-(1-amino-4-methyl-1-oxopentan-2-yl)-3-(5-chloro-2,4-difluorophenyl)-8-methyl-6,7,8,9-tetrahydro-5H-imidazo[1,5-a][1,4]diazepine-1-carboxamide]	+		
CC(C)C[C@H](NC(=O)c1nc(-c2cc(F)c(F)cc2F)n2c1CN(C)CCC2)C(N)=O [Compound 572, (S)-N-(1-amino-4-methyl-1-oxopentan-2-yl)-8-methyl-3-(2,4,5-trifluorophenyl)-6,7,8,9-tetrahydro-5H-imidazo[1,5-a][1,4]diazepine-1-carboxamide]	+		
CCC(CO)NC(=O)c1nc(-c2ccccc2)n2c1CN(C)CC2 (stereo not drawn) [Compound 232, N-(1-hydroxybutan-2-yl)-7-methyl-3-phenyl-5,6,7,8-tetrahydroimidazo[1,5-a]pyrazine-1-carboxamide]		< 5.00	
CCS(=O)(=O)N1CCn2c(-c3ccccc3)nc(C(=O)Nc3ccccc3)c2C1 [Compound 114, 7-(ethylsulfonyl)-N,3-diphenyl-5,6,7,8-tetrahydroimidazo[1,5-a]pyrazine-1-carboxamide]			EC50: > 10000 nM
CNC(=O)[C@@H](NC(=O)c1nc(-c2ccc(C(=O)N(C)C)c(F)c2)n2c1CN(C)CCC2)C(C)(C)C [Compound 426, (S)-N-(3,3-dimethyl-1-(methylamino)-1-oxobutan-2-yl)-3-(4-(dimethylcarbamoyl)-3-fluorophenyl)-8-methyl-6,7,8,9-tetrahydro-5H-imidazo[1,5-a][1,4]diazepine-1-carboxamide]		< 5.00	
CNC(=O)[C@@H](NC(=O)c1nc(-c2ccc3c(c2)OCO3)n2c1CN(C)CCC2)C(C)(C)C [Compound 341, (S)-3-(benzo[d][1,3]dioxol-5-yl)-N-(3,3-dimethyl-1-(methylamino)-1-oxobutan-2-yl)-8-methyl-6,7,8,9-tetrahydro-5H-imidazo[1,5-a][1,4]diazepine-1-carboxamide]	+		
CCN1CCn2c(-c3ccccc3)nc(C(=O)N[C@@H](C)c3ccccc3)c2C1 [Compound 147, (S)-7-ethyl-3-phenyl-N-(1-phenylethyl)-5,6,7,8-tetrahydroimidazo[1,5-a]pyrazine-1-carboxamide]		< 5.00	
CNC(=O)[C@@H](NC(=O)c1nc(-c2cc(Cl)ccc2F)n2c1CN(C)CC2)C(C)(C)C [Compound 246, (S)-3-(5-chloro-2-fluorophenyl)-N-(3,3-dimethyl-1-(methylamino)-1-oxobutan-2-yl)-7-methyl-5,6,7,8-tetrahydroimidazo[1,5-a]pyrazine-1-carboxamide]	+		
CNC(=O)[C@@H](NC(=O)c1nc(-c2ccccc2)n2c1CN(c1cncc(Cl)n1)CC2)C(C)(C)C [Compound 300, (S)-7-(6-chloropyrazin-2-yl)-N-(3,3-dimethyl-1-(methylamino)-1-oxobutan-2-yl)-3-phenyl-5,6,7,8-tetrahydroimidazo[1,5-a]pyrazine-1-carboxamide]	−		
CNC(=O)[C@@H](NC(=O)c1nc(C2=CCCCC2)n2c1CN(C)CCC2)C(C)(C)C [Compound 396, (S)-3-cyclohexenyl-N-(3,3-dimethyl-1-(methylamino)-1-oxobutan-2-yl)-8-methyl-6,7,8,9-tetrahydro-5H-imidazo[1,5-a][1,4]diazepine-1-carboxamide]	+		
CNC(=O)[C@@H](NC(=O)c1nc(-c2ccccc2)n2c1CN(S(=O)(=O)C(C)C)CC2)C(C)(C)C [Compound 94, (S)-N-(3,3-dimethyl-1-(methylamino)-1-oxobutan-2-yl)-7-(isopropylsulfonyl)-3-phenyl-5,6,7,8-tetrahydroimidazo[1,5-a]pyrazine-1-carboxamide]		< 5.00	
CNC(=O)[C@@H](NC(=O)c1nc(-c2cc(Cl)ccc2F)n2c1CN(C)CCC2)C(C)(C)C [Compound 361, (S)-3-(5-chloro-2-fluorophenyl)-N-(3,3-dimethyl-1-(methylamino)-1-oxobutan-2-yl)-8-methyl-6,7,8,9-tetrahydro-5H-imidazo[1,5-a][1,4]diazepine-1-carboxamide]	+		
COC(=O)[C@@H](NC(=O)c1nc(-c2ccccc2)n2c1CNCCC2)C(C)(C)C [Compound 465, (S)-methyl 3,3-dimethyl-2-(3-phenyl-6,7,8,9-tetrahydro-5H-imidazo[1,5-a][1,4]diazepine-1-carboxamido)butanoate]	+		
CNC(=O)[C@@H](NC(=O)c1nc(-c2ccccc2)n2c1CN(Cc1cccnc1)CC2)C(C)(C)C [Compound 63, (S)-N-(3,3-dimethyl-1-(methylamino)-1-oxobutan-2-yl)-3-phenyl-7-(pyridin-3-ylmethyl)-5,6,7,8-tetrahydroimidazo[1,5-a]pyrazine-1-carboxamide]		< 5.00	
